The record followed here is PubChem BioAssay AID2202238 (Ras Initiative Chemistry Research Team, Frederick National …, 2025).

Some of the results follow. Further columns of the screen follow, without active or inactive calls.

The target in the experiment is GTPase KRas (Homo sapiens) (UniProt P01116). Nature of the experiment: Covalent labelling of cysteine mutants by fragments, read by mass spectrometry (AID 2202238). The following applies: KRAS G12D cysteine mutants, disulfide tethering, MALDI-TOF labeling, stronger effect = higher value, fragment at 500 µM. Set-up: protein at 5 µM with 500 µM competing thiol for 1.5 h.
[1] abbreviates: measured here: G75C mutant labeling.
[2] abbreviates: measured here: H94C mutant labeling.
The mark [3] stands for this setting: measured here: I36C mutant labeling.
[4] abbreviates: measured here: L120C mutant labeling.
[5] abbreviates: measured here: M67C mutant labeling.
Setting [6] is: measured here: M72C mutant labeling.
Setting [7] is: measured here: N86C mutant labeling.
Where [8] appears, read: measured here: P121C mutant labeling.
The mark [9] stands for this setting: measured here: S122C mutant labeling.
Setting [10] is: measured here: S136C mutant labeling.
[11] abbreviates: measured here: G60C mutant labeling.
The mark [12] stands for this setting: measured here: N26C mutant labeling.

UniProt P01116, sequence (P01116 whole entry, looked up, the tested form may be a part): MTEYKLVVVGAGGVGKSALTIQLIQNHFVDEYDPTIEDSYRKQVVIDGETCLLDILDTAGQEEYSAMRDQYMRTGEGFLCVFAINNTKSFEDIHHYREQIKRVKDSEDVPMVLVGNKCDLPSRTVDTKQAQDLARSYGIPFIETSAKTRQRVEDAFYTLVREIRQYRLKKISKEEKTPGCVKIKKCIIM

Regarding `CC(C)N1Cc2cccc(NC(=O)CCS)c2C1`, the percent labeling is 16.9% under setting [1]; 34.8% under setting [2]; 39.1% under setting [3]; 23.7% under setting [4]; 41.3% under setting [5]; 25.1% under setting [6]. The percent labeling is 18.3% under setting [7], 27.4% under setting [8], 29.8% under setting [9] and 49.3% under setting [10].
In the case of `O=C(CCS)Nc1ccc(F)cc1OCC(F)F`, the percent labeling is, setting by setting: under setting [1], 13.5%; under setting [2], 41.2%; under setting [3], 33.2%; under setting [4], 32.3%; under setting [5], 34.7%; under setting [6], 26.1%. The compound further yielded a percent labeling under setting [7] of 24.8%, a percent labeling under setting [8] of 29%, a percent labeling under setting [9] of 28.5% and a percent labeling under setting [10] of 52.3%.
In turn, `CCOc1cc(NC2CCN(C(=O)CCS)CC2)ncn1` came in with a percent labeling under setting [1] of 14.9%; a percent labeling under setting [2] of 32.9%; a percent labeling under setting [3] of 41.8%; a percent labeling under setting [4] of 32.8%; a percent labeling under setting [5] of 43.3%; a percent labeling under setting [6] of 25.2%. The percent labeling runs as follows: under setting [7], 16.5%; under setting [8], 34%; under setting [9], 27.5%; under setting [10], 49.3%.
In the case of `O=C(CCS)NCCOc1cn[nH]c1C(F)(F)F`, the percent labeling by setting is: under setting [1], 15%; under setting [2], 41.1%; under setting [3], 42.7%; under setting [4], 35.1%; under setting [5], 53.4%; under setting [6], 43.7%. The same compound registered a percent labeling under setting [7] of 45.6%, a percent labeling under setting [8] of 36.5%, a percent labeling under setting [9] of 39.2% and a percent labeling under setting [10] of 56.2%.
In the case of `Cn1cc(NC(=O)CCS)c(=O)n(C)c1=O`, the percent labeling runs as follows: under setting [1], 15.7%; under setting [2], 33.8%; under setting [3], 40.7%; under setting [4], 29%; under setting [5], 34.5%; under setting [6], 28.3%. The compound further showed a percent labeling under setting [7] of 22.3%, a percent labeling under setting [8] of 36.8%, a percent labeling under setting [9] of 32.2% and a percent labeling under setting [10] of 43.9%.
`Cc1c(C)c2c(c(C)c1O)CCC(C)(C(=O)NCCS)O2` (configuration not stated): the percent labeling runs as follows: under setting [11], 34.7%; under setting [1], 19.7%; under setting [2], 21.4%; under setting [3], 14.2%; under setting [4], 14.7%; under setting [5], 21.4%. Besides, the percent labeling by setting is: under setting [6], 27.2%; under setting [12], 26.8%; under setting [7], 6.3%; under setting [8], 14.9%; under setting [9], 12.7%; under setting [10], 24.2%.
In the case of `O=C(NCCS)c1cc2c(Cl)cccn2n1`, the percent labeling under setting [11] was 35.8%; the percent labeling under setting [1] amounted to 22.7%; the percent labeling under setting [2] amounted to 22.2%; the percent labeling under setting [3] came to 13.6%; the percent labeling under setting [4] worked out at 22.6%; the percent labeling under setting [5] turned out to be 18.8%. For the same compound, the percent labeling by setting is: under setting [6], 53%; under setting [12], 31.9%; under setting [7], 9.8%; under setting [8], 20.1%; under setting [9], 12.9%; under setting [10], 33%.
Compound `Cc1ccc(C)c(-n2cnc3cc(C(=O)NCCS)ccc32)c1` yielded a percent labeling under setting [11] of 39.8%; a percent labeling under setting [1] of 9.8%; a percent labeling under setting [2] of 13.8%; a percent labeling under setting [3] of 6.9%; a percent labeling under setting [4] of 11.7%; a percent labeling under setting [5] of 10.6%. Also, the percent labeling runs as follows: under setting [6], 39%; under setting [12], 28.2%; under setting [7], 11.6%; under setting [8], 12.1%; under setting [9], 6.7%; under setting [10], 11.7%.
For `Cc1nn(C)c(C)c1CC(C)C(=O)NCCS` (configuration not stated), the percent labeling by setting is: under setting [11], 29.3%; under setting [1], 10.3%; under setting [2], 28%; under setting [3], 25.6%; under setting [4], 19.6%; under setting [5], 23.9%. Further, the percent labeling runs as follows: under setting [6], 11.9%; under setting [12], 26.4%; under setting [7], 19.4%; under setting [8], 32.8%; under setting [9], 26.5%; under setting [10], 38.2%.
As to `O=C(NCCS)c1cc(-c2ccccc2)nc2cc(Br)ccc12`, the percent labeling runs as follows: under setting [11], 35%; under setting [1], 14.9%; under setting [2], 8.2%; under setting [3], 6.9%; under setting [4], 4.9%; under setting [5], 4%. Besides, the percent labeling is, setting by setting: under setting [6], 54.2%; under setting [12], 23.6%; under setting [7], 0%; under setting [8], 9.7%; under setting [9], 2.3%; under setting [10], 18.1%.
For the compound `CC(C)c1cccc(-c2ccc(C(=O)NCCS)o2)c1`, the percent labeling was 33.5% under setting [11]; 22.1% under setting [1]; 15.5% under setting [2]; 8.8% under setting [3]; 18.5% under setting [4]; 9.5% under setting [5]. In addition, the percent labeling reads like this: under setting [6], 38.1%; under setting [12], 20.6%; under setting [7], 10.5%; under setting [8], 19.4%; under setting [9], 10.9%; under setting [10], 16.7%.
As to `CCOc1ccccc1-c1cccc(C(=O)NCCS)c1`, the percent labeling was 21.5% under setting [11]; 11.5% under setting [1]; 12.6% under setting [2]; 8.9% under setting [3]; 16.7% under setting [4]; 11.4% under setting [5]. Also, the percent labeling reads like this: under setting [6], 31.5%; under setting [12], 28.5%; under setting [7], 10%; under setting [8], 13.2%; under setting [9], 7.8%; under setting [10], 18.4%.
On to `Cc1cc(CCCC(=O)NCCS)c(C)s1`, for which the percent labeling is, setting by setting: under setting [11], 35.2%; under setting [1], 15.5%; under setting [2], 20%; under setting [3], 10.4%; under setting [4], 22.7%; under setting [5], 14.1%. Moreover, the percent labeling was 27.5% under setting [6]; 26.4% under setting [12]; 8.1% under setting [7]; 16.7% under setting [8]; 13.7% under setting [9]; 28.8% under setting [10].
Consider `O=C(CCS)NC1CCC(N2CCCC2=O)CC1` (configuration not stated), for which the percent labeling by setting is: under setting [1], 7.9%; under setting [2], 33.7%; under setting [3], 34.9%; under setting [4], 29.7%; under setting [5], 34.4%; under setting [6], 20.6%. Besides, the percent labeling was found to be 25.1% under setting [7], 34.1% under setting [8], 36.7% under setting [9] and 51.6% under setting [10].
Regarding `O=C(NCCS)C1(N2CCOCC2)CCCC1`, the percent labeling was 35.2% under setting [11]; 14.9% under setting [1]; 32.5% under setting [2]; 23.3% under setting [3]; 24.3% under setting [4]; 32.1% under setting [5]. For the same compound, the percent labeling came to 13.6% under setting [6]; 33.1% under setting [12]; 28% under setting [7]; 30.6% under setting [8]; 31.2% under setting [9]; 38.2% under setting [10].
Consider `CC(=NOCC(=O)NCCS)c1ccc2c(c1)OCO2`, for which the percent labeling was 36.6% under setting [11]; 15.2% under setting [1]; 23.5% under setting [2]; 16.1% under setting [3]; 24.5% under setting [4]; 20.3% under setting [5]. Further, the percent labeling runs as follows: under setting [6], 28.3%; under setting [12], 32.6%; under setting [7], 14.9%; under setting [8], 17.3%; under setting [9], 16.4%; under setting [10], 23.7%.
Turning to `O=C(NCCS)C1CCCCC1c1nc2ccccc2s1` (configuration not stated), the percent labeling reads like this: under setting [11], 51.7%; under setting [1], 16.2%; under setting [2], 25.9%; under setting [3], 24.3%; under setting [4], 24.1%; under setting [5], 26.8%. Further, the percent labeling runs as follows: under setting [6], 22.1%; under setting [12], 30.9%; under setting [7], 13%; under setting [8], 21.1%; under setting [9], 16%; under setting [10], 31.6%.
As for `O=C(NCCS)c1ccc(-c2nc3ccccc3s2)o1`, the percent labeling reads like this: under setting [11], 23%; under setting [1], 11.9%; under setting [2], 15.9%; under setting [3], 9.4%; under setting [4], 15.9%; under setting [5], 10.4%. Besides, the percent labeling is, setting by setting: under setting [6], 30.3%; under setting [12], 26.2%; under setting [7], 11.1%; under setting [8], 12.2%; under setting [9], 7.3%; under setting [10], 14.4%.
Turning to `O=C(NCCS)c1c(Br)ccc(F)c1OC(F)(F)F`, the percent labeling amounted to 34.9% under setting [11]; 18% under setting [1]; 21% under setting [2]; 12.7% under setting [3]; 18.6% under setting [4]; 14.5% under setting [5]. Further, the percent labeling runs as follows: under setting [6], 23.3%; under setting [12], 22%; under setting [7], 10.1%; under setting [8], 15.6%; under setting [9], 12.2%; under setting [10], 20.8%.
Turning to `Cc1cc(C(=O)NCCS)n(-c2ccccc2)n1`, the percent labeling runs as follows: under setting [11], 38.2%; under setting [1], 5.9%; under setting [2], 37.5%; under setting [3], 19.8%; under setting [4], 31.6%; under setting [5], 9.2%. This compound also showed a percent labeling under setting [6] of 34.4%; a percent labeling under setting [12] of 37.2%; a percent labeling under setting [7] of 14.9%; a percent labeling under setting [8] of 25.7%; a percent labeling under setting [9] of 15.3%; a percent labeling under setting [10] of 33.2%.
For the compound `O=C(CC(n1cccn1)C(F)(F)F)NCCS` (configuration not stated), the percent labeling reads like this: under setting [11], 39.3%; under setting [1], 10.2%; under setting [2], 29.4%; under setting [3], 26.8%; under setting [4], 38.7%; under setting [5], 26.7%. For the same compound, the percent labeling under setting [6] came to 13.5%; the percent labeling under setting [12] is 29.8%; the percent labeling under setting [7] amounted to 25.8%; the percent labeling under setting [8] came to 31.7%; the percent labeling under setting [9] was 29.3%; the percent labeling under setting [10] was found to be 35.9%.
For `O=C(CCS)N1CCC(c2ccc3cccnc3n2)CC1`, the percent labeling reads like this: under setting [1], 13.2%; under setting [2], 31.8%; under setting [3], 40.4%; under setting [4], 37.6%; under setting [5], 44.3%; under setting [6], 30.9%. For the same compound, the percent labeling is 27.9% under setting [7], 31.2% under setting [8], 23.4% under setting [9] and 50% under setting [10].
Take `CC(C)Cn1[nH]c(CC(=O)NCCS)cc1=O`: the percent labeling by setting is: under setting [11], 11.4%; under setting [1], 0%; under setting [2], 15.9%; under setting [3], 11.1%; under setting [4], 35.5%; under setting [5], 15.8%. The percent labeling stood at 0% under setting [6]; 20.5% under setting [12]; 7.4% under setting [7]; 25.4% under setting [8]; 11.5% under setting [9]; 18.6% under setting [10].
